Reference: US20130287688A1, “NOVEL COMPOSITIONS AND USES OF ANTI-HYPERTENSION AGENTS FOR CANCER THERAPY” (XTUIT PHARMACEUTICALS, INC., priority 2010, published 2013)

Experiments:
[1] = tested on: AK4.4 pancreatic tumors; assay: Tumor matrix level histology (collagen I); set-up: species or system FVB mouse; conditions: mouse, in vivo
Procedure: Collagen levels were used as a metric of matrix production as described in Diop-Frimpong et al., Proc Nall Acad Sci USA. […] Next, solid stress in these tumors was measured using recently established technique described in Stylianopoulos T, et al., Growth-induced mechanical stress in murine and human tumors: causes, consequences and remedies. under review.
Vessel perfusion, matrix level, and hypoxia histology: For breast tumors, mice bearing orthotopic E0771 were split into treatment groups, time-matched for time after implantation and size-matched for tumor volume at this time (−100 mm^3). For pancreatic tumors, mice bearing orthotopic AK4.4 were split into treatment groups, size-matched for tumor volume (˜22 mm^3), 6 days after implantation. […] On the day of the last treatment, mice were slowly (−2 min) injected with 100 μL of 1 mg/mL biotinylated lectin (Vector Labs), administered retro-orbitally 5 min prior to tumor removal. For hypoxia studies, the mice were also injected with 60 mg/kg of 10 mg/mL pimonidazole 1 hr prior to tumor removal. […] For matrix staining, collagen I was detected using the LF-67 antibody provided by Dr. Larry Fisher (National Institute of Dental Research, Bethesda, Md.).
Histological image analysis: Eight random images (four interior, four periphery) at 20× magnification were taken from each slide using a confocal microscope (Olympus). […] For perfusion, the number of vessels counted by this program with colocalization of lectin and CD31 staining was divided by the number of vessels counted with CD31 staining. For vessel metrics, including diameter and density, the program determined the average size of all counted vessels and their length, as well as the count per area Images of collagen I stained sections were analyzed based on the area fraction of positive staining and on the average staining intensity (concentration) in each image. […] Images of hypoxia staining with pimonidazole were similarly analyzed for the area fraction of positive staining, counting the fraction of pixels above a threshold based on background intensity.

[2] = tested on: AK4.4 pancreatic tumors; assay: Pancreatic tumor growth and survival; type: in vivo, mice; conditions: for tumor growth rate: monotherapy (losartan 40 mg/kg daily or 5-FU 60 mg/kg)
Procedure: Statistical tests were corrected for multiple comparisons using the Holm-Bonferroni method.
(§1) The mice were then treated with either 60 mg/kg 5-FU or an equal volume of saline by intravenous injection on days 9 and 13 after implantation. Tumors were extracted on day 14 for measurement using calipers. Tumor growth was quantified using the size at day 14. […] Metastatic burden was assessed at death.

[3] = tested on: E0771 breast tumors; assay: Vessel perfusion histology (lectin / CD31); type: in vivo, SCID mouse; conditions: 40 mg/kg i.p. daily, 6 days; control 23%
[4] = tested on: AK4.4 pancreatic tumors; assay: Small-molecule drug (5-FU) delivery to tumors and organs; type: in vivo, mice; conditions: losartan 40 mg/kg i.p. daily 7 days
Procedure: The accumulation of the small-molecule chemotherapeutic fluorouracil (5-FU) was then measured. Losartan improved 5-FU delivery to AK4.4 tumors, while not affecting delivery to normal organs (FIG. 29A).
Drug delivery: Mice bearing orthotopic AK4.4 were split into treatment groups, size-matched for tumor volume (−22 mm^3), 6 days after implantation. The mice were then treated with 40 mg/kg losartan or an equal volume of PBS intraperitoneally each day for 7 days. On the day of the last treatment, mice were injected with 100 mg/kg 5-FU, administered retro-orbitally 30 min prior to tumor and organ removal. The tissue was dabbed of excess blood then snap-frozen in liquid nitrogen for analysis. 5-FU was isolated from the tissues and measured using liquid-liquid extraction followed by reverse-phase high-performance liquid chromatography with tandem mass-spectrometry.

[5] = tested on: AK4.4 pancreatic tumors; assay: Metastasis study: disease dissemination at death; type: in vivo, mice
Procedure: as §1

[6] = tested on: AK4.4 pancreatic tumors; assay: Tumor volume measurement, pump vs pulsatile losartan; type: in vivo, male FVB mice; conditions: for Average volume (Day 7): baseline
From the text: On day 7 the tumors were all measured, and then the mice were randomized into one group of sixteen mice for subcutaneous injection of PBS as a control (Group 1), one group of twenty-two mice for subcutaneous pump administration of losartan (Group 2), and one group of twenty-two mice for subcutaneous injection of losartan in the absence of pump. Subcutaneous pumps with losartan were implanted on day 7 into the twenty-two mice in Group 2. All of the mice in Group 1 were subcutaneously dosed with PBS daily until day 14 or day 19. All of the mice in Groups 2 and 3 were dosed with losartan at 40 mg/kg daily until day 14 or day 19. Blood and tumor samples were collected either 2 hours or 6 hours post injection. The body weight was measured for all mice every other weekday (i.e., every Monday, Wednesday, and Friday) until the final dose on day 14 or 19. For PK/PD analysis, six mice in each group (three mice per time point in Groups 2 and 3) were euthanized on day 14 and day 19. Blood samples were collected and tumor weight was measured. To perform collagen I immunohistochemistry, the tumors of ten mice were collected following the measurement of the tumor volume.
The volumes of the tumors collected from the mice in Group 1 (subcutaneous injections of PBS as a control), Group 2 (subcutaneous pump administration of losartan at 40 mg/kg), and Group 3 (subcutaneous injections of losartan without pump at 40 mg/kg) were measured on day 19. The baseline tumor volumes were measured on day 7.

[7] = tested on: AK4.4 pancreatic tumors; assay: Collagen I immunofluorescence quantitative image analysis; type: in vivo, mice; conditions: for average percentage of collagen I positive area: PBS 16.26±1.72%; for percentage of collagen I positive area, representative image: PBS 22.356%; for average number of collagen I positive fibers per image: PBS 28.04±2.41
Procedure: Collection instruction: For PK/PD analysis, blood samples from euthanized mice were collected into lithium heparin tubes and inverted until centrifuged for 5 minutes in 4° C. at 6,000 rpm. Weighed tumors were homogenized with PBS. For immunohistochemistry analysis of collagen I, tumors were collected and sliced into two pieces. Both pieces were placed in 4% formaldehyde for up to 6 hours (0.5 hour per 1 mm) then rinsed three times with PBS. The tumor samples were stored in 30% sucrose for 24 hours and then frozen in 30×24 mm molds with optimum cutting temperature compound (OCT). The tumor samples were then stored in tissue cassettes at −80° C.
In Group 1, the mice were subcutaneously injected with saline as a control. In Group 2, losartan was administered to the mice via subcutaneous pump. In Group 3, losartan was administered to the mice via subcutaneous injections in the absence of pump.
Immunohistochemistry for collagen I was performed as described in the experimental protocols for Examples 11.
To quantify the positively stained area for collagen I and to identify the number of collagen I positive fibers, each collagen fiber was outlined and each collagen area was calculated from the collagen I positive area/total area. The average collagen I area and number of collagen I positive fibers were calculated by averaging the total ten fields from each tumor sample.

[8] = tested on: AK4.4 pancreatic tumors; assay: Vessel perfusion histology (lectin / CD31); conditions: 40 mg/kg
[9] = losartan in combination with 5-FU
[10] = Group 2: subcutaneous pump 40 mg/kg
[11] = Group 3: subcutaneous injections without pump 40 mg/kg
[12] = Group 2: losartan via subcutaneous pump
[13] = Group 3: losartan subcutaneous injection without pump

In the case of `NCCCC[C@H](N[C@@H](CCc1ccccc1)C(=O)O)C(=O)N1CCC[C@H]1C(=O)O` [lisinopril], the “matrix production, collagen I area fraction” value [1] is reported as “decreases”.

In the case of `O=c1[nH]cc(F)c(=O)[nH]1` [5-FU, fluorouracil], the tumor growth rate [2] is reported as “no significant effect”.

In the case of `CCCCc1nc(Cl)c(CO)n1Cc1ccc(-c2ccccc2-c2nn[nH]n2)cc1` [losartan], the perfused vessel fraction [3] is reported as 43%, the “concentration of collagen I (staining intensity)” value [1] is reported as “reduces” and the “matrix production, collagen I area fraction” value [1] is reported as “decreases”. For the same compound, the “accumulation of 5-FU in the normal organs” value [4] was “not affecting”, the “increase in accumulation of 5-FU in tumors” value ([4]; 5-FU 100 mg/kg 30 min before removal) was 74% and the survival ([2]; losartan alone) was “did not shorten survival”. For the same compound, the tumor growth [2, 9] was “greatly slowed tumor growth”, the tumor growth rate [2] was “no significant effect” and the “incidence and size of metastases” value [5, 9] was “appeared to reduce the incidence and size of metastases”. For the same compound, the metastasis ([5]; losartan monotherapy) was “did not increase metastasis”, the “increase of average tumor volume from day 7 to day 19” value ([6]; Group 2 (subcutaneous pump)) was 21 fold and the “average tumor volume smaller than that of Group 1 and Group 3” value ([6]; Group 2 (subcutaneous pump), day 19) was “about 27%”. For the same compound, the “Average volume (Day 19)” value [6, 10] was 235.98 mm^3, the “Average volume (Day 7)” value [6, 10] was 11.17 mm^3 and the “increase of average tumor volume from day 7 to day 19” value ([6]; Group 3 (subcutaneous injections without pump)) was “more than 30 fold”. The “Average volume (Day 19)” value [6, 11] was 323.13 mm^3, the “Average volume (Day 7)” value [6, 11] was 10.33 mm^3 and the “average percentage of collagen I positive area” value [7, 12] was 3.24±0.48% and 3.24%. For the same compound, the “percentage of collagen I positive area, representative image” value [7, 12] was 4.453%, the “average number of collagen I positive fibers per image” value [7, 12] was 10.01±1.28 and 10.01 and the “average percentage of collagen I positive area” value [7, 13] was 8.71±0.65% and 8.71%. The “percentage of collagen I positive area, representative image” value [7, 13] was 11.34%, the “average number of collagen I positive fibers per image” value [7, 13] was 17.93±1.14 and 17.93 and the “CD31+ vessel density” value [8] was “did not affect”.

“And” between values parts separate entries of the source, which are not always exact repeats. Equal values may be shown once.
